# Values joined by “and” are separate entries in the source; they are usually repeats but may differ in a detail not shown here. Identical values can stand only once. Inconclusive means that the source gave no clear call. Such entries were picked first, then a sample of the others. A potency beside an inconclusive call is a rough fit, not a confirmed value. Active and inactive are the calls of the source. Unless noted, the call rests on the fitted dose curve; in most records, active means well fitted curve in the direction sought with a large enough effect in the repeat runs; inconclusive means weak or mixed curves; inactive means no such curve, though single readings can be large; an effect the other way counts as inactive or inconclusive.
# Assays:
# [1] = qHTS assay for small molecule agonists of the p53 signaling pathway (AID 651631; calls by dose curve; further: nearly all actives have a fitted effect of over 15% in size; on activation: on the % scale 0 is the no-effect control and ±100 the full control effect); conditions: HCT-116 p53RE-bla reporter, beta-lactamase FRET ratio, 16 h
# How it was run: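 Readout was fluorescence from the LiveBLAzer FRET substrate, applied for 2 h at room temperature after 16 h compound exposure at 37 °C. Cells were the p53RE-bla HCT-116 line, with beta-lactamase driven by p53 response elements.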
# [2] = qHTS assay for small molecules that induce genotoxicity in human embryonic kidney cells expressing luciferase-tagged ATAD5 (AID 651632); further: nearly all actives have a fitted effect of over 15% in size; on activation: on the % scale 0 is the no-effect control and ±100 the full control effect
# How it was run: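 Concentration-response screen for ATAD5 upregulation in HEK293T luciferase reporter cells; 16 hr treatment at 37C, then luminescence after 30 min with Amplite at room temperature.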
# [3] = qHTS assay for small molecules that induce genotoxicity in human embryonic kidney cells expressing luciferase-tagged ATAD5 - cell viability (AID 651634; calls by dose curve; further: nearly all actives have a fitted effect of over 25% in size)
# How it was run: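 15.5 hr compound or vehicle exposure of HEK293T cells expressing luciferase-tagged ATAD5 at 37C; live-cell protease activity is read by fluorescence after 30 min of CellTiter-Fluor.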
# [4] = qHTS assay for small molecule disruptors of the mitochondrial membrane potential (AID 720635); conditions: HepG2 mitochondrial membrane potential, Mito-MPS dye ratio; on ratio activity, negative = MMP loss: on the % scale 0 is the no-effect control and ±100 the full control effect
# How it was run: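 HepG2 cells exposed to compound 1 hr at 37C, then Mito-MPS dye 30 min. Ratio read of aggregate (540/590 nm) versus monomer (490/535 nm) fluorescence.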
# [5] = biological target: Glucocorticoid receptor (Homo sapiens) (UniProt P04150); assay: qHTS assay to identify small molecule antagonists of the glucocorticoid receptor (GR) signaling pathway (AID 720692; active means well fitted inhibition curve with a large enough effect in the signal ratio in the repeat runs, not every such curve was filed as active; inconclusive means weak or mixed curves, or effect the other way; inactive means no such curve, though single readings can be large or run the other way; the % refers to the signal ratio; on activity change, negative = inhibition: on the % scale 0 is the no-effect control and ±100 the full control effect); conditions: GR-bla HeLa, beta-lactamase FRET ratio, dexamethasone-stimulated, 18 h; activity change, negative = inhibition: at 58.5 µM (top of the series) unless noted
# UniProt P04150, sequence (P04150 whole entry, looked up): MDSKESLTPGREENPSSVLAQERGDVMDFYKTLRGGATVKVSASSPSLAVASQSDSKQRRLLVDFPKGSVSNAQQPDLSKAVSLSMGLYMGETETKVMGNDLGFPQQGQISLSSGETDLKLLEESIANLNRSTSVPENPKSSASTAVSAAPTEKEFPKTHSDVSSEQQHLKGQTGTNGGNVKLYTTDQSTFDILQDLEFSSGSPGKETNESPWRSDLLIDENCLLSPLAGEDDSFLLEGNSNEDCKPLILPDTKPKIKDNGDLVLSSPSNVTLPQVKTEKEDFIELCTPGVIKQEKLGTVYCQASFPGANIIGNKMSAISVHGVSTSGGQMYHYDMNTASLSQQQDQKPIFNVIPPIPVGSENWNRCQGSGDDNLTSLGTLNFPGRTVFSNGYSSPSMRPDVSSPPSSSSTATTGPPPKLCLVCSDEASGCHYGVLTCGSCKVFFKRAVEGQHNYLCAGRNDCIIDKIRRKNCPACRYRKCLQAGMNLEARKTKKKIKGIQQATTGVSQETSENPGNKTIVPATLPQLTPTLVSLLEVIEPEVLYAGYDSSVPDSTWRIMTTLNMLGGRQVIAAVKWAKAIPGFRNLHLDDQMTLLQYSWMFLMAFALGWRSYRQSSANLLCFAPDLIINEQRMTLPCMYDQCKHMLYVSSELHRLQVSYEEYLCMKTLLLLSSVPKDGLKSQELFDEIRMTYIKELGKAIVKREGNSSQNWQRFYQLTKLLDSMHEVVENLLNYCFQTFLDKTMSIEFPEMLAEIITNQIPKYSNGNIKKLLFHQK
# How it was run: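 Tox21 10K library screened in concentration-response for blockade of dexamethasone (5 nM final)-induced GRE-bla reporter activity in HeLa cells; 18 h treatment, fluorescence read.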
# [6] = qHTS assay to identify small molecule antagonists of the glucocorticoid receptor (GR) signaling pathway - cell viability counter screen (AID 720693); conditions: GR-bla HeLa viability, CellTiter-Glo luminescence, 18 h, with 5 nM dexamethasone present; viability change, negative = cytotoxic: at 58.5 µM (top of the series); further: nearly all actives have a fitted effect of over 55% in size
# [7] = biological target: Glucocorticoid receptor (Homo sapiens) (UniProt P04150); assay: qHTS assay to identify small molecule agonists of the glucocorticoid receptor (GR) signaling pathway (AID 720691; active means well fitted activation curve with a large enough effect in the signal ratio in the repeat runs, not every such curve was filed as active; inconclusive means weak or mixed curves, or effect the other way; inactive means no such curve, though single readings can be large or run the other way; the % refers to the signal ratio); conditions: GR-bla HeLa, beta-lactamase reporter ratio, 18 h; activation: at 62.4 µM (top of the series) unless noted
# How it was run: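 Measures GR pathway activation through a GRE-beta-lactamase reporter stably integrated in HeLa cells, with 18 h compound treatment at 37 C and fluorescence detection using a FRET substrate.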
# [8] = qHTS assay for small molecule disruptors of the mitochondrial membrane potential - cell viability (AID 720634; calls by dose curve; further: nearly all actives have a fitted effect of over 20% in size)
# How it was run: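 In this qHTS format, HepG2 cells plated overnight were pinned with compound, incubated 1 hr, and assayed for ATP luminescence with CellTiter-Glo after m-MPI dye addition.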
# [9] = qHTS assay for small molecule agonists of the p53 signaling pathway - cell viability (AID 651633; calls by dose curve; further: nearly all actives have a fitted effect of over 30% in size)
# How it was run: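 p53RE-bla cells were treated with compound for 16 hours at 37 C. Cytotoxicity was then measured as CellTiter-Glo luminescence after 30 min at room temperature.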
# [10] = qHTS assay for identifying genotoxic compounds that show differential cytotoxicity against isogenic chicken DT40 cell lines with known DNA damage response pathways - wild type cell line (AID 743012); conditions: DT40 wild type chicken cells viability, CellTiter-Glo, 40 h; activity change, negative = cytotoxicity: at 68.4 µM (top of the series); further: nearly all actives have a fitted effect of over 60% in size
# How it was run: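 Endpoint: CellTiter-Glo luminescence, 30 min RT. Cells: wild type DT40, 300/well. Exposure: compounds in DMSO, 40 h, 37 C/5% CO2, after ~0.5 h pre-incubation.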
# [11] = activation: at 73.3 µM (top of the series) unless noted
# [12] = ratio activity, negative = MMP loss: at 83.2 µM (top of the series) unless noted
# Potency means the concentration at half of the fitted maximal effect; tags describe the fitted curve by direction and shape or compound fluorescence and quenching.
smiles,measurement,setting,value
C=CC(=O)OCCOCCOCCOCCOC(=O)C=C,Potency,[1]; [11],inconclusive: 19.4 µM and inconclusive: 27.1 µM
same,Potency,[2],"inconclusive: 24.5 µM [activator] and inconclusive: 34.1 µM [activator, partial curve]"
same,Potency,[3],"inconclusive: 60.6 µM [falling, partial curve, poor fit]"
same,"ratio activity, negative = MMP loss",[4]; at 83.2 µM (top of the series),inactive: 28.5%
same,"ratio activity, negative = MMP loss",[4]; [12],inconclusive: 27.8% [at 95.3 µM]
same,Potency,[5],"inconclusive: 55.2 µM [cytotoxic, single point] and inconclusive: 54.4 µM [cytotoxic, partial curve]"
same,Potency,[6],active: 49.2 µM and active: 48.5 µM
OCCOCCOCCOCCO,activation,[1]; [11],inconclusive: 3.46% [at 95.1 µM]
same,activation,[1]; at 73.3 µM (top of the series),inactive: -1.31%
same,Potency,[5],inactive
O=S1(=O)CC(Cl)(Cl)C(Cl)(Cl)C1,Potency,[1]; [11],"inconclusive: 10.9 µM [falling, full curve]"
same,Potency,[2],active: 4.86 µM
same,Potency,[3],active: 24.3 µM
same,Potency,[7],"inconclusive: 5.49 µM [cytotoxic, full curve]"
same,Potency,[5],"inconclusive: 12.3 µM [cytotoxic, full curve]"
same,Potency,[6],active: 9.77 µM
CCCCCCCCCCCCOC(=O)c1cc(O)c(O)c(O)c1,Potency,[1]; [11],active: 68.3 µM and active: 61.1 µM
same,Potency,[2],"inconclusive: 30.5 µM [activator, partial curve, poor fit] and inconclusive: 27.3 µM [activator, partial curve, poor fit]"
same,Potency,[8],active: 60.9 µM and active: 54.5 µM
same,Potency,[7],"inconclusive: 24.4 µM [cytotoxic] and inconclusive: 24.5 µM [cytotoxic, full curve]"
same,Potency,[5],"inconclusive: 38.7 µM [cytotoxic, partial curve] and inconclusive: 38.9 µM [cytotoxic, partial curve]"
same,Potency,[6],active: 27.4 µM and active: 34.7 µM
[Cl][Bi]([Cl])([c]1ccccc1)([c]1ccccc1)[c]1ccccc1,Potency,[1]; [11],active: 24.2 µM
same,Potency,[2],"inconclusive: 21.6 µM [activator, partial curve, poor fit]"
same,Potency,[9],active: 21.6 µM
same,Potency,[8],"inconclusive: 68.2 µM [cytotoxic, single point]"
same,Potency,[4]; [12],active: 43 µM
same,Potency,[7],"inconclusive: 10.9 µM [cytotoxic, full curve]"
same,Potency,[5],"inconclusive: 21.7 µM [cytotoxic, partial curve]"
CCOc1ccc([N+](=O)[O-])cc1,Potency,[1]; [11],"inconclusive: 55.3 µM [cytotoxic, partial curve]"
same,Potency,[2],inactive
same,Potency,[9],active: 62 µM
same,Potency,[3],"inconclusive: 69.6 µM [falling, single point]"
same,Potency,[4]; [12],active: 3.91 µM
same,Potency,[7],"inconclusive: 24.9 µM [cytotoxic, full curve]"
same,Potency,[5],"inconclusive: 39.5 µM [cytotoxic, partial curve]"
same,Potency,[6],active: 35.2 µM
C=CC(=O)OCC(CO)(COCC(COC(=O)C=C)(COC(=O)C=C)COC(=O)C=C)COC(=O)C=C,Potency,[1]; [11],active: 67.8 µM
same,Potency,[2],active: 2.4 µM
same,Potency,[8],"inconclusive: 60.4 µM [cytotoxic, single point]"
same,Potency,[4]; [12],"inconclusive: 5.38 µM [activator, full curve]"
same,Potency,[7],"inconclusive: 12.2 µM [cytotoxic, full curve]"
same,Potency,[5],"inconclusive: 13.6 µM [cytotoxic, full curve]"
O=Nc1ccc(Nc2ccccc2)cc1,Potency,[1]; [11],active: 27.4 µM
same,Potency,[2],"inconclusive: 19.4 µM [activator, partial curve] and inconclusive: 27.3 µM [activator, partial curve, poor fit]"
same,Potency,[9],"inconclusive: 48.8 nM [cytotoxic, full curve, poor fit] and inconclusive: 77 µM [cytotoxic, single point]"
same,Potency,[3],"inconclusive: 61.1 µM [falling, single point]"
same,Potency,[8],inconclusive: 68.9 µM [cytotoxic] and inconclusive: 68.6 µM [cytotoxic]
same,Potency,[4]; [12],"inconclusive: 27.3 µM [inhibitor, partial curve]"
same,Potency,[6],"inconclusive: 55.3 µM [cytotoxic, single point]"
Cc1cc2c(C(C)C)c(O)c(O)c(C=O)c2c(O)c1-c1c(C)cc2c(C(C)C)c(O)c(O)c(C=O)c2c1O,Potency,[1]; [11],"inconclusive: 11.9 µM [cytotoxic, partial curve]"
same,Potency,[2],inconclusive: 37.6 µM [activator]
same,Potency,[9],active: 8.41 µM
same,Potency,[4]; [12],active: 11.9 µM
same,Potency,[7],"inconclusive: 23.9 µM [cytotoxic, partial curve]"
same,Potency,[5],"inconclusive: 23.9 µM [cytotoxic, partial curve]"
same,Potency,[6],active: 9.52 µM
same,Potency,[10],active: 10.6 µM
SCCCCCCCCS,activation,[1]; [11],inconclusive: 3.45%
same,Potency,[2],"inconclusive: 77 µM [activator, partial curve, poor fit]"
same,Potency,[4]; [12],"inconclusive: 77 µM [inhibitor, single point]"
Nc1cc(Cl)c(-c2cc(Cl)c(N)cc2Cl)cc1Cl,Potency,[1]; [11],active: 68.5 µM and active: 68.6 µM
same,Potency,[2],"inconclusive: 10.9 µM [activator, full curve, poor fit] and active: 13.7 µM"
same,Potency,[8],active: 48.5 µM and active: 54.5 µM
same,Potency,[7],"inconclusive: 43.6 µM [falling, partial curve]"
same,Potency,[5],inconclusive: 61.6 µM [cytotoxic]
same,Potency,[6],active: 54.9 µM and active: 49 µM
same,Potency,[10],active: 5.44 µM and active: 4.86 µM
O=C(c1ccc(O)cc1O)c1ccc(O)cc1O,Potency,[1]; [11],"inconclusive: 68.7 µM [activator, single point]"
same,activation,[1]; [11],inconclusive: 4.23%
same,Potency,[3],"inconclusive: 68.7 µM [falling, partial curve, poor fit]"
same,Potency,[8],"inconclusive: 13.7 µM [cytotoxic, partial curve, poor fit]"
same,Potency,[4]; [12],active: 12.2 µM and active: 7.7 µM
same,activation,[7],inconclusive: -9.33%
same,Potency,[5],active: 24.6 µM and inconclusive: 21.9 µM [cytotoxic]
O=C1OC(O)C(C(Cl)Cl)=C1Cl (stereo not drawn),Potency,[1]; [11],active: 14.1 µM
same,Potency,[2],"inconclusive: 31.6 µM [activator, partial curve, poor fit]"
same,Potency,[8],"inconclusive: 79.3 µM [cytotoxic, partial curve, poor fit]"
same,Potency,[4]; [12],active: 63 µM
same,Potency,[7],inconclusive: 35.7 µM [inhibitor]
same,Potency,[5],active: 25.3 µM
same,Potency,[6],"inconclusive: 22.5 µM [cytotoxic, single point]"
Clc1nc(C(Cl)(Cl)Cl)c(Cl)c(Cl)c1Cl,Potency,[1]; [11],inconclusive: 68.6 µM [cytotoxic]
same,Potency,[2],"inconclusive: 61.1 µM [activator, partial curve]"
same,Potency,[9],active: 61.1 µM
same,Potency,[6],"inconclusive: 6.16 µM [cytotoxic, partial curve, poor fit]"
same,Potency,[10],active: 21.7 µM
CCCCCCCCCCCC(=O)NCCCN(C)C,Potency,[1]; [11],"inconclusive: 30.6 µM [cytotoxic, full curve]"
same,Potency,[2],"inconclusive: 27.3 µM [activator, single point]"
same,Potency,[3],"inconclusive: 61.1 µM [falling, single point]"
same,Potency,[8],inconclusive: 68.6 µM [cytotoxic]
same,Potency,[4]; [12],"inconclusive: 61.1 µM [cytotoxic, partial curve]"
same,Potency,[5],"inconclusive: 54.9 µM [cytotoxic, single point]"
same,Potency,[6],active: 30.9 µM
same,Potency,[10],active: 6.11 µM
O=c1n(CC2CO2)c(=O)n(CC2CO2)c(=O)n1CC1CO1 (stereo not drawn),Potency,[1]; [11],active: 13.3 µM and active: 8.58 µM and active: 8.63 µM
same,Potency,[2],active: 23.7 µM and active: 24.2 µM and active: 54.5 µM
same,Potency,[3],inconclusive: 68.2 µM
same,Potency,[4]; [12],inactive
same,Potency,[7],inconclusive: 61.3 µM [inhibitor]
same,activation,[7],inconclusive: 8.64% and inconclusive: -3.61%
same,Potency,[5],"inconclusive: 3.01 µM [activator, full curve, poor fit] and inconclusive: 7.71 µM [activator, partial curve] and inconclusive: 11 µM [activator, full curve]"
same,Potency,[6],"inconclusive: 61.3 µM [cytotoxic, single point]"
same,Potency,[10],inconclusive: 0.121 µM [cytotoxic]
c1ccc2c(c1)CCc1ccccc1N2,Potency,[1]; [11],"inconclusive: 54.8 µM [falling, partial curve, poor fit]"
CC(C)(C)c1ccc(O)c(O)c1,Potency,[1]; [11],inconclusive: 70.9 µM [single point] and inconclusive: 61.1 µM [activator]
same,Potency,[2],"inconclusive: 79.5 µM [activator, partial curve, poor fit] and inconclusive: 48.6 µM [activator, partial curve, poor fit]"
same,Potency,[9],"inconclusive: 68.6 µM [cytotoxic, single point]"
same,Potency,[4]; [12],active: 15.9 µM and active: 13.7 µM
same,Potency,[5],"inconclusive: 28.5 µM [inhibitor, partial curve, poor fit] and active: 50.9 µM"
same,Potency,[6],inconclusive: 54.9 µM [cytotoxic]
same,Potency,[10],active: 17.8 µM and active: 6.11 µM
CC1=C(/C=C/C(C)=C/C=C/C(C)=C/C(=O)Nc2ccc(O)cc2)C(C)(C)CCC1,Potency,[1]; [11],active: 29.8 µM
same,Potency,[2],"inconclusive: 3.96 µM [activator, full curve, poor fit]"
same,Potency,[8],inconclusive: 70.3 µM [cytotoxic]
same,Potency,[7],"inconclusive: 23.9 µM [cytotoxic, partial curve] and inconclusive: 22.4 µM [cytotoxic, full curve]"
same,Potency,[5],"inconclusive: 26.8 µM [cytotoxic] and inconclusive: 50.2 µM [cytotoxic, partial curve]"
same,Potency,[6],"inconclusive: 26.8 µM [cytotoxic, single point]"
